Measured values from patent US20220340642A1 (Kyowa Kirin, published 2022).
Substitutions are numbered along the chain they refer to. Blank lines part the entries; values can stand above or below the binder they belong to.

Legend:
[1] = target: T1, soluble recombinant of human TL1A (His6, GS linker, Leu72-Leu251) (human, UniProt O95150 72-251); experiment: SPR, binder captured, trimer ligand
T1 construct: also called His6-TL1A; hTL1A
T1 sequence: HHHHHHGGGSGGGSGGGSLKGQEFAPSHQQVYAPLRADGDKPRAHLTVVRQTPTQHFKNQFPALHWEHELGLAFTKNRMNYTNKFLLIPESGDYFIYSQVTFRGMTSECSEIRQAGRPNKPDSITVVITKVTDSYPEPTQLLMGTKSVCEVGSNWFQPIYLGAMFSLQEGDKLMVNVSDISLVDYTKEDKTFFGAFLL
Description: (§1) The binding activities to human DcR3 trimer ligands were analyzed by the SPR method. BIAcore T-100 (GE Healthcare) was used for measurement of the binding activities to human LIGHT and human TL1A, and BIAcore T-100 (GE Healthcare) or BIAcore T-200 (GE Healthcare) was used for measurement of the binding activity to human FasL. As the buffer, HBS-EP+Buffer was used.
(§2) After 10,000 RU of anti-human antibodies were immobilized to Series S Sensor Chip CM5 using Human Antibody Capture Kit (both of which are manufactured by GE Healthcare), various wild-type DcR3 controls and DcR3 variants were injected at the flow rate of 10 μL/min for 30 seconds and captured. Meanwhile, the buffer containing no protein was injected into a reference flow cell. Thereafter, as an analyte, each human DcR3 trimer ligand diluted to 0.02 to 80 nmol/L was injected at 30 μL/min for 2 minutes to monitor the binding, and subsequently the buffer was injected for 3 minutes to monitor dissociation. Then, 3 mol/L magnesium chloride was injected at 30 μL/min for 1 minute to perform a regeneration reaction.

[2] = target: T2, Human His6 Fas Ligand/TNFSF6 (Cell Signaling Technology, Inc.) (human, UniProt P48023 133-281); experiment: SPR, binder captured, trimer ligand
T2 construct: Bought; confirmed as a trimer by SEC-MALS; also called recombinant human His6 Fas Ligand; soluble human FasL trimer
T2 sequence: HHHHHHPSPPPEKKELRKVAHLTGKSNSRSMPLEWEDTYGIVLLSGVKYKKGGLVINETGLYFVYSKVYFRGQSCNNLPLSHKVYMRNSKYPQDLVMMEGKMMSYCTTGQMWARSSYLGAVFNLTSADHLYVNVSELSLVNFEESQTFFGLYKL
Description: as §1, §2

[3] = target: T3, FLAG-LIGHT (FLAG tag, human LIGHT Asp74-Val240) (human, UniProt O43557 74-240); experiment: SPR, binder captured, trimer ligand
T3 construct: SEC trimer fraction; also called soluble recombinant FLAG-LIGHT trimer; soluble human LIGHT trimer
Description: as §1, §2

[4] = target: T4, soluble recombinant of human FasL (His6, Pro134-Leu281) (UniProt P48023 134-281); experiment: BIAcore SPR
T4 chain: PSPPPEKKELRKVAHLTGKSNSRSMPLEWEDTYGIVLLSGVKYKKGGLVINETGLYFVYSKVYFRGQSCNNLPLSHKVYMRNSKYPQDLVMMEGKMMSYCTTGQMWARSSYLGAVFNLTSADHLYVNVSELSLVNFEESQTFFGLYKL
How it was run: (§3)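 Binding of each test molecule to soluble recombinant His-tagged human or cynomolgus monkey LIGHT, TL1A or FasL was analysed by surface plasmon resonance. Measurements used a BIAcore T-100 or T-200 instrument (GE Healthcare) in HBS-EP+ Buffer. The dissociation constant (Kd, nM) was derived from these measurements.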

[5] = target: T5, soluble recombinant of human LIGHT (His10, GS linker, Asp74-Val240); experiment: BIAcore SPR
T5 chain: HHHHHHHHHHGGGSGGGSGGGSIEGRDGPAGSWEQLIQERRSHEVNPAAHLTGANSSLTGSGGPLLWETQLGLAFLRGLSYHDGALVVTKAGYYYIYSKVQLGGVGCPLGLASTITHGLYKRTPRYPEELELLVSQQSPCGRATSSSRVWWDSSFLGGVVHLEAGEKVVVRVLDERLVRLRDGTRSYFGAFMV
How it was run: as §3

[6] = target: T6, soluble recombinant of human TL1A (His6, GS linker, Leu72-Leu251) (UniProt O95150 72-251); experiment: BIAcore SPR
T6 chain: T1 sequence
How it was run: as §3

[7] = target: T7, soluble recombinant of cynomolgus monkey TL1A (His6, GS linker, Leu72-Leu251) (cynomolgus monkey); experiment: SPR, binder captured
T7 construct: also called His6-cynoTL1A
T7 chain: T1 sequence with F57L, I96V
Description: (§4) Regarding each of the various wild-type DcR3 controls and the DcR3 variants shown in Table 9, the binding activities to DcR3 ligands (LIGHT, TL1A, FasL) were analyzed by the SPR method using BIAcore T-100 (GE Healthcare). As the buffer, HBS-EP+Buffer was used.
(§5) After 10,000 RU of anti-human antibodies were immobilized to Series S Sensor Chip CM5 using Human Antibody Capture Kit (GE Healthcare), various wild-type DcR3 controls and DcR3 variants were injected at the flow rate of 10 μL/min for 30 seconds and captured. Meanwhile, the buffer containing no protein was injected into reference flow cells. Thereafter, as an analyte, DcR3 ligands of a human, a cynomolgus monkey or a mouse diluted to 0.08 to 80 nmol/L were injected at 10 μL/min for 2 minutes to monitor the binding, and subsequently the buffer was injected for 3 minutes to monitor dissociation. Then, 3 mol/L magnesium chloride was injected at 20 μL/min for 1 minute to perform a regeneration reaction. […] As a result of measurement, except for mouse LIGHT for which a trimer could not be produced, it was confirmed that various wild-type DcR3 controls and DcR3 variants bind to each DcR3 ligand of a human, a cynomolgus monkey or a mouse.

[8] = target: T8, soluble recombinant of mouse LIGHT (His10, GS linker, Asp72-Val239) (mouse); experiment: SPR, binder captured
T8 chain: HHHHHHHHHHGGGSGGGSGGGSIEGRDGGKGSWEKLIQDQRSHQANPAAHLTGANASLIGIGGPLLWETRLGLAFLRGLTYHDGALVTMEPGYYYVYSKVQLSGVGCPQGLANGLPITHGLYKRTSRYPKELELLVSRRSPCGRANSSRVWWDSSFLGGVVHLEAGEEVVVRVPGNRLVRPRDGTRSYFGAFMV
Description: as §4, §5

[9] = target: T9, soluble recombinant of cynomolgus monkey FasL (His6, Pro133-Leu280) (cynomolgus monkey, UniProt P63308 133-280); experiment: SPR, binder captured
T9 construct: also called His6-cynoFasL
T9 sequence: T4 chain with L10Q, S20P, N70T, R108H
Description: as §4, §5

[10] = target: T1, soluble recombinant of human TL1A …; experiment: SPR, binder captured
Description: as §4, §5

[11] = target: T10, soluble recombinant of mouse TL1A (His6, GS linker, Ile94-Leu270) (mouse, UniProt Q5UBV8 76-252); experiment: SPR, binder captured
T10 sequence: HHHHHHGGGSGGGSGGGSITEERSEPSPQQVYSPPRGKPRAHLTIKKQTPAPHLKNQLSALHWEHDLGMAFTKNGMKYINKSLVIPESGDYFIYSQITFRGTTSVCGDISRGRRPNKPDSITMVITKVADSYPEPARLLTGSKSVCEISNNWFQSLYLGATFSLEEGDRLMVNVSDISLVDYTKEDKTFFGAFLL
Description: as §4, §5

[12] = target: T11, soluble recombinant of human FasL (His6, Pro134-Leu281) (human, UniProt P48023 134-281); experiment: SPR, binder captured
T11 sequence: T4 chain
Description: as §4, §5

[13] = target: T12, soluble recombinant of human LIGHT (His10, GS linker, Asp74-Val240) (human); experiment: SPR, binder captured
T12 chain: T5 chain
Description: as §4, §5

[14] = target: T13, soluble recombinant of cynomolgus monkey LIGHT (His10, GS linker, Asp74-Val240) (cynomolgus monkey); experiment: SPR, binder captured
T13 chain: T5 chain with P29H, A30G, E44Q, V45N, S80D, V88A, T89N, S146N, A164V, K167E
Description: as §4, §5

[15] = target: T14, soluble recombinant of mouse FasL (His6, Pro132-Leu279) (mouse, UniProt P41047 132-279); experiment: SPR, binder captured
T14 sequence: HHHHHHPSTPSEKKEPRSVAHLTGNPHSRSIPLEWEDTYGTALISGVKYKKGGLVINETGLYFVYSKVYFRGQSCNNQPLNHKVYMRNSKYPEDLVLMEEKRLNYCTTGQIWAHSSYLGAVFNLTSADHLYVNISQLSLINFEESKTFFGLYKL
Description: as §4, §5

binding result [1]: binds
binding result [2]: binds
binding result [3]: binds
Kd [4]: 0.65 nM
Kd [5]: 0.18 nM
Kd [6]: 0.13 nM
B1: chimera A-Fc (g1S) (Fc fusion)
chain: ETFPPKYLHYDEETSHQLLCDKCPPGTYLKQHCTAKWKTVCAPCPPRHYTQFWNYLERCRYCNVLCGEREEEARACHATHNRACRCRTGFFAHAGFCLEHASCPPGAGVIAPGTPSQNTQCQPCPDGFFSNETSSKAPCRKHTNCSVFGLLLTQKGNATHDNICSGNSESTQ[omitted - human IgG1 Fc with C220S (EU numbers)]

Kd [7]: 0.38 nM
koff [7]: 0.00029 s⁻¹
kon [7]: 760000 M⁻¹ s⁻¹
binding result [8]: no binding (tested: 0.08 to 80 nmol/L)
Kd [9]: 0.47 nM
koff [9]: 0.0004 s⁻¹
kon [9]: 840000 M⁻¹ s⁻¹
Kd [10]: 0.36 nM
koff [10]: 0.0003 s⁻¹
kon [10]: 830000 M⁻¹ s⁻¹
Kd [11]: 0.73 nM
koff [11]: 0.0023 s⁻¹
kon [11]: 3.1e+06 M⁻¹ s⁻¹
Kd [12]: 0.76 nM
koff [12]: 0.00078 s⁻¹
kon [12]: 1e+06 M⁻¹ s⁻¹
Kd [13]: 0.63 nM
koff [13]: 0.00025 s⁻¹
kon [13]: 390000 M⁻¹ s⁻¹
Kd [14]: 0.44 nM
koff [14]: 0.00024 s⁻¹
kon [14]: 540000 M⁻¹ s⁻¹
Kd [15]: 47 nM
koff [15]: 0.0587 s⁻¹
kon [15]: 1.2e+06 M⁻¹ s⁻¹
B2: chimera A-Fc (IEGRMD g1S) (Fc fusion)
chain: ETFPPKYLHYDEETSHQLLCDKCPPGTYLKQHCTAKWKTVCAPCPPRHYTQFWNYLERCRYCNVLCGEREEEARACHATHNRACRCRTGFFAHAGFCLEHASCPPGAGVIAPGTPSQNTQCQPCPDGFFSNETSSKAPCRKHTNCSVFGLLLTQKGNATHDNICSGNSESTQKIEGRM[omitted - human IgG1 Fc with C220S (EU numbers)]

Kd [4]: 1.4 nM
Kd [5]: 0.42 nM
Kd [6]: 0.38 nM
Kd [7]: 1.1 nM
koff [7]: 0.00088 s⁻¹
kon [7]: 790000 M⁻¹ s⁻¹
binding result [8]: no binding (tested: 0.08 to 80 nmol/L)
Kd [9]: 1.1 nM
koff [9]: 0.00084 s⁻¹
kon [9]: 750000 M⁻¹ s⁻¹
Kd [10]: 1.1 nM
koff [10]: 0.00091 s⁻¹
kon [10]: 840000 M⁻¹ s⁻¹
Kd [11]: 1.2 nM
koff [11]: 0.002 s⁻¹
kon [11]: 1.7e+06 M⁻¹ s⁻¹
Kd [12]: 1.7 nM
koff [12]: 0.0015 s⁻¹
kon [12]: 860000 M⁻¹ s⁻¹
Kd [13]: 2.2 nM
koff [13]: 0.00061 s⁻¹
kon [13]: 280000 M⁻¹ s⁻¹
Kd [14]: 1.7 nM
koff [14]: 0.00059 s⁻¹
kon [14]: 340000 M⁻¹ s⁻¹
koff [15]: 0.0056 s⁻¹
kon [15]: 580000 M⁻¹ s⁻¹
B3: S195-Fc (Fc fusion)
chain: VAETPTYPWRDAETGERLVCAQCPPGTFVQRPCRRDSPTTCGPCPPRHYTQFWNYLERCRYCNVLCGEREEEARACHATHNRACRCRTGFFAHAGFCLEHASCPPGAGVIAPGTPSQNTQCQPCPPGTFSASSSSSEQCQPHRNCTALGLALNVPGSSSHDTLCTSIEGRM[omitted - human IgG1 Fc with C220S (EU numbers)]
notes: also called S195-Fc (IEGRMD g1S); 5195-Fc
